In all, about 33,000 sequences were measured (“E-score (-0.5 to 0.5)”: median about -0.011, highest 2% from about 0.28 on). This is one part of the list.
Each sequence was assayed against T1, Gcr1 (UniProt P07261) (assay: PBM E-score (8-mer binding enrichment) (E-score (-0.5 to 0.5)); higher = stronger / more preferred TF binding; most listed sequences are background and not binding sites). Settings: protein concentration: 100 nM; construct: GST-full length.
T1 sequence: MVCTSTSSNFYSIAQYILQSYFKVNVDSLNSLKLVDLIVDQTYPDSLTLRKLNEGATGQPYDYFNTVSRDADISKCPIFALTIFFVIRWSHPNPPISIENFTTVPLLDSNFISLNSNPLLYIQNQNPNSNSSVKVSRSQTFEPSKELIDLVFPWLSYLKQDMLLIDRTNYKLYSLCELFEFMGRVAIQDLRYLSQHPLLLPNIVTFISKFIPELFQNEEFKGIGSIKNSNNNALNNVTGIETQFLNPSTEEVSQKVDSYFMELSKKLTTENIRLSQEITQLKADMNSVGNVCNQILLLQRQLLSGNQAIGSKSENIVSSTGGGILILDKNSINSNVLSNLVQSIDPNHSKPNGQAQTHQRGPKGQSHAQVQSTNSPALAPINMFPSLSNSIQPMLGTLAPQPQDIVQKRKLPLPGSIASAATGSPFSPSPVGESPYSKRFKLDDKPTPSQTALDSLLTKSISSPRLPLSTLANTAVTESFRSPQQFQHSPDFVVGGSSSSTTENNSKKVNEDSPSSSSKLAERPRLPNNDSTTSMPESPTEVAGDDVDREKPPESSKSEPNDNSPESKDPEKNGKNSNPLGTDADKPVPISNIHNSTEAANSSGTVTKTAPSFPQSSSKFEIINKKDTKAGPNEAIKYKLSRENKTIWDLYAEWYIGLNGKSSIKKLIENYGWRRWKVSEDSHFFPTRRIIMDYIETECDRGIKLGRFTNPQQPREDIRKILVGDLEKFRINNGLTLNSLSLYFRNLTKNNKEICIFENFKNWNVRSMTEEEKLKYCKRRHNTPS
Procedure, shortened: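 Masliner-normalised scans of fluorescent anti-GST signal were the basis for scoring. That signal came from GST-tagged yeast transcription factors applied at about 100-200 nM to double-stranded universal all-10-mer Agilent arrays on fresh or once-stripped slides. Each ungapped eight-base word, pooled with its reverse complement, received an E-score from the Universal PBM Analysis Suite.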

| Sequence | PBM E-score |
| --- | --- |
| GAGAGACC | -0.0739 |
| CGTAACAA | -0.0297 |
| ACGAGTCG | -0.0432 |
| CGAAGGAG | 0.0769 |
| ATAAACTA | 0.128 |
| TTGACCAA | 0.0136 |
| ACAACCTA | -0.024 |
| ACATGGCC | -0.138 |
| ACATAGCT | -0.233 |
| ATTCTGTC | -0.124 |
| CGCTTTAA | -0.0365 |
| AATGTCAC | 0.00273 |
| GTCTCTGA | -0.0671 |
| AAGCCCCT | 0.0409 |
| ATATTGAC | -0.171 |
| GTAATACA | 0.0624 |
| ACCATTAG | -0.0532 |
| TCACTTAA | -0.0203 |
| GCACATGA | -0.102 |
| CCCGGTCA | -0.0625 |
| GGAATACC | 0.161 |
| AGAAAACC | -0.0435 |
| GCTATTAA | 0.0943 |
| GTTGTCAA | -0.187 |
| ACTTGACA | -0.2 |

| Sequence | PBM E-score |
| --- | --- |
| CTCTTTAC | 0.161 |
| GACGCGGC | 0.253 |
| CAAGCGGC | 0.165 |
| ACTACGGC | 0.0786 |
| CGACGTTA | 0.0113 |
| AATGTTTC | 0.165 |
| ACACAACA | -0.0843 |
| ACAGGTAA | 0.0538 |
| AATGGATG | 0.134 |
| AGACTTAC | -0.342 |
| ATGCTCCG | -0.254 |
| ACCACCCA | 0.0425 |
| AATTTGGT | 0.253 |
| AAGAGTGC | -0.0487 |
| ACAAGTAT | 0.125 |
| AGTGGTAT | 0.247 |
| AATCGCCA | -0.0127 |
| TCCCGAAA | 0.252 |
| TCAAGGAA | 0.0158 |
| GTTCTGGA | -0.00188 |
| ATTATTTG | 0.107 |
| ACCTTTCG | -0.093 |
| CTCCAGCC | -0.183 |
| CTCGTCCC | -0.355 |
| CGATTGGC | -0.146 |

| Sequence | PBM E-score |
| --- | --- |
| ATCACCCG | -0.192 |
| GATATAAC | -0.0751 |
| GTGGGGGA | 0.0931 |
| CTTCCCAA | 0.232 |
| ATCCTTAA | 0.115 |
| GGAGTCTA | 0.0222 |
| TCTCCTCA | -0.0534 |
| AAGTAAGC | -0.217 |
| CCGAGGTC | -0.104 |
| TACGAGTA | -0.0401 |
| ATATCTCA | -0.0917 |
| GAGGCTGA | -0.0331 |
| GGCGAGTA | -0.113 |
| GTGACTAA | -0.0152 |
| GCCTAAGA | -0.106 |
| GAGTCCGA | 0.158 |
| ACCCACGA | 0.0759 |
| GTGGCCAA | -0.0719 |
| GGCCTTTA | -0.0866 |
| GATGGGGA | 0.0681 |
| GAAGTAGC | 0.257 |
| AACCACAT | 0.0672 |
| CGCTAGGA | -0.171 |
| CCTTAAGG | -0.142 |
| CGCATACG | 0.00348 |

| Sequence | PBM E-score |
| --- | --- |
| GGGTTGAA | -0.147 |
| ATCAGTCC | -0.24 |
| ACCTGCGT | -0.0862 |
| ACAAAATC | 0.101 |
| ACTTGATG | -0.0626 |
| CGAGTAGA | -0.0365 |
| ACAAAAGT | 0.00185 |
| TAAAGGCA | -0.0171 |
| AAGGGACG | -0.058 |
| CAAAGCCG | -0.0561 |
| GGGAATCA | 0.0161 |
| AACTAATA | 0.187 |
| CCAGGTAA | -0.0543 |
| ACGTATCA | -0.14 |
| CCGTGTCC | -0.0187 |
| CAGCAGAC | -0.0985 |
| CGGAGAAA | -0.106 |
| AACCTGCC | -0.202 |
| CCAGGTAC | 0.052 |
| GCACATAA | -0.0767 |
| CCCCTTCG | 0.045 |
| CAGCGCCG | 0.205 |
| CAAAGTCC | -0.011 |
| GCCTAACC | -0.0444 |
| TATGTGAA | 0.0626 |

| Sequence | PBM E-score |
| --- | --- |
| GTTGGCAA | 0.0265 |
| AGATCAAG | 0.0772 |
| AAGGTTCG | -0.134 |
| TAGAGTAA | -0.164 |
| TCCGTTAA | -0.00183 |
| CTTATGTC | 0.00662 |
| TAGGTTAA | -0.0257 |
| CAACCGCC | -0.0499 |
| GGGACAAA | -0.0353 |
| CTCCAGAC | 0.122 |
| CGGTTCCC | 0.161 |
| ACTATTCA | 0.103 |
| CGGTGCAC | -0.105 |
| CTATAGCC | -0.191 |
| CCGTATAC | 0.173 |
| CCGAGACA | -0.263 |
| CATGGCCC | -0.201 |
| ATCCGGTG | 0.228 |
| AAGCGCTT | -0.0906 |
| CTAATTAG | 0.165 |
| AGGGGCCC | 0.21 |
| GCACAAGC | -0.149 |
| CACGATCC | 0.155 |
| CCGAAGGA | -0.084 |
| ATTCAGAA | 0.108 |

| Sequence | PBM E-score |
| --- | --- |
| AGAGCTAC | -0.0587 |
| CGGCACTC | -0.187 |
| AGCGGATG | 0.138 |
| ATACACGG | -0.0418 |
| GACAACCC | 0.0322 |
| GACTTTCA | 0.0748 |
| AAATGATA | 0.0389 |
| ATGTAAAT | 0.116 |
| TGATAGCA | 0.183 |
| CTGTCCGC | -0.0662 |
| CTGGTAGA | 0.113 |
| CGTTGTTC | -0.113 |
| CAAGTAAA | 0.0412 |
| CGTGCTAC | 0.0665 |
| ACCTGGTC | -0.175 |
| TCTCGCCA | -0.258 |
| GACCACGC | -0.136 |
| CCACACGC | 0.209 |
| ATCTGCCG | 0.0926 |
| ACAATTTC | 0.00093 |
| CATTCGGA | 0.00656 |
| CCATCCAA | -0.121 |
| CGGGGTAA | 0.0976 |
| GTGAATTA | 0.0532 |
| ACCCCCAG | -0.0743 |

| Sequence | PBM E-score |
| --- | --- |
| CCAACTTC | 0.216 |
| GACCAGTA | -0.00358 |
| ATATGGTG | 0.227 |
| CTCTGTAA | 0.0466 |
| GCTTCCGA | 0.386 |
| CGTAACAC | -0.101 |
| ACAGGCCT | 0.0209 |
| GGGTGGTA | 0.0454 |
| CGTTGAAC | -0.256 |
| AGCGATAA | -0.02 |
| ACAGAGGT | 0.0543 |
| AGCTTCCA | 0.458 |
| CTTAGAGC | -0.0182 |
| ACCTTCTA | 0.134 |
| GCCCCATA | -0.0303 |
| GGAGGCCA | 0.128 |
| GAGCAATC | -0.286 |
| AGAGGCAA | -0.125 |
| CAACGGTC | -0.339 |
| AGAGGCGA | -0.139 |
| ACACGTAC | 0.042 |
| CATTCTAG | 0.111 |
